Test results from the supplement of paper PMC3334620.
Whole data set: some 33,000 sequences, median “E-score (-0.5 to 0.5)” near -0.056, cut for the highest 2% near 0.38. Some of the results follow.

target: Stb4 (UniProt P50104); assay: PBM E-score (8-mer binding enrichment) (E-score (-0.5 to 0.5)); higher = stronger / more preferred TF binding; most listed sequences are background and not binding sites; conditions: protein concentration: 200 nM; construct: GST-DNA-binding domain
Method: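 Universal 'all 10-mer' protein binding microarrays (Agilent AMADID 015681) probed with GST-tagged S. cerevisiae TFs (full-length or DBD) made by in vitro transcription/translation (PURExpress), about 100-200 nM. Bound TF was detected with fluorescent anti-GST. Each ungapped 8-mer (which stands for itself and its reverse complement) is scored by the PBM enrichment score (E-score), a modified Wilcoxon-Mann-Whitney statistic from -0.5 to +0.5, computed with the Universal PBM Analysis Suite. Scale: above 0.35 generally sequence-specific binding.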

Sequence	PBM E-score
ACATCAAT	-0.173
AAATACAT	-0.251
ACAACTGC	-0.185
AGGGACCT	-0.215
ATGATCTG	-0.207
CCTGATCG	-0.00686
AAATTGAT	0.142
ATTTGTGA	-0.0937
TCCTGCCA	-0.213
GAGCTAAA	-0.0964
ACCTCCAA	-0.439
ATGGAAAA	0.02
ACGGGTCA	0.0265
AAACCCAG	-0.209
ACATCAAC	0.0408
CCACCAAG	-0.0994
AATAACAC	0.0778
GACCAAGC	-0.107
ATCAATGC	-0.0158
AACATCCA	-0.0721
GGACAAAC	-0.162
ATAGCCAG	-0.358
GAAAAGGA	0.00735
AGAGAGAA	-0.168
AAAAGGCC	-0.167

Sequence	PBM E-score
CTGATGGA	-0.205
CCGGCTGC	0.272
CAATAAAA	-0.0756
AATCTCTG	-0.17
AAAGCTTT	0.174
AGTACGGA	0.194
ACTCAGAC	-0.368
AAAACAGT	0.0431
ACAGCCCG	0.135
ATAGTCTC	-0.144
ACGCCTTG	-0.106
AGTCTGAA	-0.24
ACACAGAG	-0.198
CCGTTATA	0.00967
GATAGCAA	-0.00338
ATGCATTA	0.0561
AGGACAAT	-0.0514
ACTGAGCC	-0.0323
CTGTAGAA	-0.0631
AGAGGAAA	-0.0307
GAGTCAGA	-0.116
AAAAACGG	0.171
CCAATTAA	-0.218
AGTGTTAA	-0.107
ACTAACAG	-0.133

Sequence	PBM E-score
AACTCCGA	0.412
GGTAAAAC	0.0434
ACAATCCG	0.276
ATGGAGGA	-0.118
GAGGCCTA	0.0115
AGGGCGCA	-0.261
CTGAGCGA	-0.092
CACGTATC	-0.154
CAGGGTCA	-0.2
CAGAGAGA	-0.267
AAATCCAA	-0.0495
ATAACTGG	-0.0233
GAAGGAGA	-0.138
CTAGCAAG	-0.344
GGAGAACA	-0.00318
CAAACCTG	-0.205
AGAAATTC	-0.0386
ACCACCAC	-0.125
AGCTAAGG	-0.114
AAATCGCA	-0.11
GCAGATTA	0.0108
CAGTGCCG	0.254
CGGGGTAG	0.187
AATTATTC	0.152
CAAGGTGG	-0.0134

Sequence	PBM E-score
CACAACGA	0.0887
CCTTGTGA	-0.0811
CGCTGCCC	0.0661
CGGTTTCA	0.127
CAACCTCA	-0.307
CTACTGCC	-0.0454
GCCCTTGA	-0.209
CGGAAGAA	0.406
TAGATGAA	-0.0575
CCCGCAAC	0.228
AAAAACTG	-0.151
GAGGCTAA	-0.057
CGGCAGGA	0.262
CGGTGGCC	0.114
ACGCTAGT	-0.0234
AAGCTGCA	-0.15
AAGCCTCT	-0.297
AAGGTGAG	-0.0074
CAAATTGA	-0.17
TACGAACA	-0.191
CAGAGCTC	-0.0125
GCGCGACA	0.127
GCACCAAC	-0.0228
GAGTTACC	0.0098
ACGGTTCA	-0.00149

Sequence	PBM E-score
AGAGATCT	-0.196
AGGCACAA	-0.0779
GAACCGTC	0.0614
ACGGGCTC	-0.082
GCCACTTA	-0.0691
TACGACTA	-0.155
ATCTATTG	-0.00962
GGGAATGA	0.203
GAGGTGCC	0.168
AGACGCGG	0.135
CCCCACTA	-0.0244
CAGCATAC	-0.251
AGGGTAAA	0.0281
CCAATCAA	-0.0593
AACATATG	0.0117
AACTTAAT	0.0351
ACATAGTA	-0.124
CCTTGAGA	-0.118
CTATGCGA	-0.201
CATGACCA	-0.136
ATAATCAT	-0.0964
ACCAGATC	-0.128
GGCTAGCA	0.0604
CCCGTGCG	0.22
ACAACGCG	-0.0194

Sequence	PBM E-score
CGATCCTA	-0.0737
AGGGAACC	-0.0275
GAGCTCGC	0.0693
GAGTGTAA	-0.203
AAGGAAAA	-0.0632
CCAGTATC	0.0117
AGGGCAAT	0.0263
AAGGCGGC	-0.0425
CATAATCC	0.045
AGAACAGG	-0.0996
TTGTTAAA	0.0675
GCGCAGTA	-0.016
GATCGTCC	0.124
ACTACGTC	-0.133
GAATGGGA	-0.0671
ATATCTTC	0.163
CTTGCCCC	0.0396
CCGAATTA	0.363
CACGGTTC	-0.101
AAGCACCC	0.0662
ACCTACCT	0.0109
ATGACGCC	-0.199
AAATATGA	-0.262
ATCGAACG	-0.169
ACATCTGC	-0.229

Sequence	PBM E-score
CTGAGGAC	0.00314
GGTGTCGA	-0.0694
CGGTTAGC	0.275
CGTTAATA	-0.00514
ATTAAGTA	0.0384
GGGACAAC	-0.0192
GGGAAAAC	0.059
CAAGCTTA	-0.0186
GACTGTCC	-0.0945
GCCGGCCC	0.272
CAATCAGG	-0.158
TATGACAA	-0.0924
CGTAAGTC	-0.0191
ACCATTCG	0.0583
ATTGCAAA	-0.00619
CTTTAAAA	-0.049
AATCTGAG	-0.0921
CAATACGA	-0.0332
ACGGTCTG	-0.202
GTGCCCAA	-0.146
GAGTATAC	-0.0191
CAGCTACA	-0.175
